Among all 48,000 compounds or so, about 1,200 (2.5%) were called active. Roughly 2% stayed inconclusive and do not appear here.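 The calls were made as follows: active = activation of at least 60% and not above a set upper limit (about 1 call in 100 departs from these limits); inconclusive = activation of 40% to 60%, or above that upper limit; inactive = activation under 40%.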 Some of the results follow.
What follows are molecules tested against Probable G-protein coupled receptor 32 (Homo sapiens) (UniProt O75388) (assay: qHTS for Agonists of Human Resolvin D1 Receptor DRV1). Conditions: CHO-K1 GPR32 beta-arrestin PathHunter luminescence, 90 min; at 76.9 µM; stronger effect = higher value; zero percent set by DMSO-only wells.
UniProt O75388, sequence (O75388 whole entry, looked up, the tested form may be a part): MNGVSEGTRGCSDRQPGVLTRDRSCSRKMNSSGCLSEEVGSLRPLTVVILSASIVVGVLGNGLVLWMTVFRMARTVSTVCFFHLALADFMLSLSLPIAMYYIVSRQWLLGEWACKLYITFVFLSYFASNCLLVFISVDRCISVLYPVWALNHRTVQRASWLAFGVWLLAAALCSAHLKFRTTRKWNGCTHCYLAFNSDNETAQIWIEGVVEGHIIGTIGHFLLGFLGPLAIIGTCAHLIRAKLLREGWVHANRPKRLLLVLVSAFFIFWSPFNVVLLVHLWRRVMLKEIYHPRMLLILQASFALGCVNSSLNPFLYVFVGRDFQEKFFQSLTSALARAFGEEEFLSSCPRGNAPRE
How it was run: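 Agonism was scored as beta-arrestin recruitment to ProLink-fused GPR32 in stably transfected CHO-K1 cells, giving a chemiluminescent beta-Gal signal; compounds were incubated 90 min at 37 °C.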
With COC(=O)c1ccccc1NC(=O)CSc1n[nH]c(CC(C)C)n1 the activation was inactive: -9.04%.
Cc1ccc(CNC(=O)CCNS(=O)(=O)c2ccc3c(c2)CCCC(=O)N3)cc1 was tested, and the activation was inactive: 15.4%.
For CCCCN(CCCC)CCCNC(=O)c1ccc2nc(N3CCCCC3)sc2c1, the activation was inactive: 9.82%.
In the case of COc1ccc(OC)c(Nc2nc3ccccc3nc2-n2nc(C)cc2C)c1, the activation is reported as inactive: -30.2%.
For COc1ccc2c(c1)c1c(c(=O)n(-c3cc(Cl)ccc3C)c(=O)n1CC(=O)N1CCCC1)n2C, the activation was inactive: -6.68%.
For COc1ccc(-c2nnn3c2nc(NCCc2ccc(OC)c(OC)c2)c2ccccc23)cc1, the activation was inactive: 14.1%.
In the case of Cc1nn2c(=O)cc(COc3ccc(/C=C(\C#N)C(=O)Nc4ccccc4C)cc3)nc2s1, the activation is reported as inactive: 3.54%.
CCOC(=O)c1cccc(NC(=O)CCc2c(C)nn(-c3ccc(N4CCCCC4)nn3)c2C)c1 was tested, and the activation was inactive: -6.39%.
For Cc1ccc(Sc2c(C)nn(C(C)(C)C)c2OC(=O)CC(C)C)cc1, the activation was inactive: 17.8%.
With Cc1c(C(=O)OC2CCC(C)CC2)[nH]c2c1C(=O)CC(c1ccc(F)cc1)C2 (configuration not stated) the activation was inactive: 0.448%.
COc1ccc(Cn2ccc3nc(C)c(C(=O)N4CCN(c5ccc(F)cc5)CC4)cc3c2=O)cc1 was tested, and the activation was inactive: -5.69%.
With Cc1ccccc1NC(=O)c1c(NC(=O)c2ccccc2F)sc2c1CCC(C)C2 (configuration not stated) the activation was inactive: 6.83%.
In the case of CCCCN1C(=O)c2[nH]nc(-c3ccccc3O)c2C1c1ccc(OCc2ccccc2)c(OC)c1 (configuration not stated), the activation is reported as inactive: 4.58%.
In the case of COc1ccccc1NC(=O)c1ncn(-c2ccccc2)n1, the activation is reported as inactive: -8.85%.
In the case of CCOC(=O)c1[nH]c2c(c1Cc1ccccc1)C(=O)CC(c1ccc(C(C)(C)C)cc1)C2 (configuration not stated), the activation is reported as inactive: -18.6%.
CCOC(=O)C1CCN(C(=O)c2cnn(-c3ccc(F)cc3)c2-n2cccc2)CC1 was tested, and the activation was inactive: -2.09%.
For CN(CC(=O)Nc1ccc(F)cc1F)S(=O)(=O)c1cccc2nsnc12, the activation was inactive: 14.8%.
With CCN(CC)CCCNC(=O)c1sc2nc3n(c(=O)c2c1C)CCCCC3 the activation was inactive: -14.1%.
With COc1ccc(C(=O)Nc2nc3c(s2)Cc2c(Br)ccc(OC)c2-3)cc1OC the activation was inactive: 10.6%.
Cc1cc(C)cc(N(CC(=O)Nc2c(C)cc(C)cc2C)S(=O)(=O)c2c(C)nn(C)c2C)c1 was tested, and the activation was inactive: 0%.
CCN(CC)S(=O)(=O)c1cc(-c2ccc(=O)n(C(C)C(=O)Nc3cccc(C#N)c3)n2)ccc1C (configuration not stated) was tested, and the activation was inactive: -3.92%.
In the case of CCc1ccc(NC(=O)CSc2nnc(CC)c(CC)n2)cc1, the activation is reported as inactive: -3.45%.
For Cc1ccc(Cn2c(CN3CCC(C(=O)O)CC3)cc3ccccc32)cc1, the activation was inactive: -12.9%.
For CCOc1ccccc1NC(=O)CCS(=O)(=O)c1ccc2c(c1)oc(=O)n2C, the activation was inactive: 11.2%.
For CC(C)NC(=O)C1CCCN(c2ncnc3onc(-c4ccc(F)cc4)c23)C1 (configuration not stated), the activation was inactive: -4.45%.
With CCOc1cc(-c2nnc(SCC(=O)NC3CCCCC3)nc2-c2ccc(OC)c(OCC)c2)ccc1OC the activation was inactive: -17.4%.
For COc1ccc(CNC(=O)CCCn2ccc3cc(S(=O)(=O)N4CCCC4)ccc32)cc1, the activation was inactive: -17.2%.
With COc1ccc2oc(-c3cccc(NC(=O)c4cc([N+](=O)[O-])ccc4N4CCOCC4)c3)nc2c1 the activation was inactive: -11.7%.
In the case of CCOC(=O)C(C)Sc1nnc2cc(C)c3ccccc3n12 (configuration not stated), the activation is reported as inactive: -15.3%.
COc1cc(C2c3c(-c4c(C)cc(C)cc4O)n[nH]c3C(=O)N2Cc2ccco2)cc(OC)c1OC (configuration not stated) was tested, and the activation was active: 64.9%.
With Cc1ccccc1CNC(=O)C1CCCCN1S(=O)(=O)c1ccc(F)cc1 (configuration not stated) the activation was inactive: -9.96%.
In the case of O=[N+]([O-])c1ccc(S(=O)(=O)N2CCn3cccc3C2c2ccc(Br)cc2)cc1 (configuration not stated), the activation is reported as inactive: -9.15%.
With COc1ccc(C(CNC(=O)c2oc3cc(Br)ccc3c2C)N2CCCCC2)cc1 (configuration not stated) the activation was inactive: -11.1%.
For COc1ccc(OC)c(-c2cc(C(=O)Nc3c(C)nn(Cc4ccc(C)cc4)c3C)no2)c1, the activation was inactive: 9.71%.
For COc1ccc(Nc2ncc3c(n2)CCN(Cc2sccc2C)C3)c(OC)c1, the activation was inactive: 24.9%.
For COc1ccc2c(CNCCc3ccco3)c(C(=O)O)n(Cc3ccc(C)cc3)c2c1, the activation was active: 89.4%.
With Cc1ccc(-n2ncc3c(NCCCN(C)C)ncnc32)cc1Cl the activation was inactive: 39.2%.
For O=C(Cn1ncc2c3ccccc3n(Cc3ccccc3)c2c1=O)NCc1ccccn1, the activation was inactive: -13.7%.
With Cc1ccc(NC(=O)c2c(C)oc3ccc(O)c(CN4CCN(Cc5ccccc5)CC4)c23)cc1 the activation was inactive: -5.57%.
In the case of Cc1ccc(-n2nc(C(=O)N(C)c3ccc(C)c(C)c3)c3c4ccccc4n(C)c3c2=O)cc1, the activation is reported as inactive: -7.93%.
For Cc1ccc(CN2CCC(CNC(=O)c3cnn(-c4ccc(C)cc4)c3C3CCN(C(=O)OC(C)(C)C)CC3)CC2)cc1, the activation was inactive: -23.2%.
In the case of CCOC(=O)CN1C(=O)N(c2ccc(C)c(C)c2)S(=O)(=O)c2ccccc21, the activation is reported as inactive: -6.92%.
Cc1ccc(S(=O)(=O)N(CC(=O)Nc2cccnc2)c2cc(Cl)ccc2C)cc1 was tested, and the activation was inactive: 34.4%.
For CCOc1ccc(CNC(=O)C2CCCN(c3nn4cc(-c5ccc(OC)cc5)nc4s3)C2)cc1 (configuration not stated), the activation was inactive: -6.12%.
COc1ccc(NC(=O)CC2C(=O)N(c3ccccc3)C(=O)N2CCc2sccc2C)cc1 (configuration not stated) was tested, and the activation was inactive: -6.67%.
Cc1cccc(NC(=O)CCCn2nc(C)c3c(C)n(-c4ccccc4)nc3c2=O)c1C was tested, and the activation was inactive: -13.5%.
Cc1cc(=O)n(CC(=O)Nc2ccc(Cl)c(Cl)c2)c(-n2nc(C)cc2C)n1 was tested, and the activation was inactive: -1.12%.
For CN1C(=O)c2ccccc2Sc2ccc(NC(=O)Cc3ccc(Cl)cc3)cc21, the activation was inactive: -10.6%.
Cc1cccc(N(C)S(=O)(=O)c2nnc(NC(=O)C(C)Oc3ccccc3)s2)c1 (configuration not stated) was tested, and the activation was inactive: 0.769%.
For COC(=O)c1sccc1S(=O)(=O)N1CCN(c2cccc(C)c2)C(C)C1 (configuration not stated), the activation was inactive: 10.1%.
For COc1ccc(OC)c(CCNC(=O)c2ccc3c(c2)N(Cc2ccccc2)CCS3)c1, the activation was inactive: -22.6%.
With CCOC(=O)c1cccc(NC(=O)C2COc3ccc(OC)cc3C2)c1 (configuration not stated) the activation was inactive: -22.7%.
Cc1ccc(CCNC(=O)C2CC(=O)N(CCc3ccc(C)cc3)C2)cc1 (configuration not stated) was tested, and the activation was inactive: -8.83%.
In the case of O=C(NCc1ccccc1)C1CCN(c2ncnc3c2nc2n3CCCCC2)CC1, the activation is reported as inactive: 3.74%.
With Cc1ccc(-n2cc(-c3ccccc3)c3c(N4CCC(C)CC4)ncnc32)cc1Cl the activation was inactive: -2.79%.
With COc1ccc(C)cc1NC(=O)CSc1nc(=O)n(Cc2ccco2)c2c1CCC2 the activation was inactive: -0.0524%.
In the case of O=C(NCc1ccc(Cl)cc1)c1ccc2c(c1)nnn2C1CCCC1, the activation is reported as inactive: 14.7%.
With CCCCc1ccc(NC(=O)Cn2cnc3c(oc4ccccc43)c2=O)cc1 the activation was inactive: -0.697%.
For Cc1nc2nc(NCc3ccccc3Cl)[nH]n2c(=O)c1Cc1ccccc1, the activation was inactive: -2.86%.
With O=C(Nc1ccccc1OCc1cc(=O)n2ccccc2n1)Nc1ccccc1C(F)(F)F the activation was inactive: -15.6%.
With CCOC(=O)c1cnc2c(C)cc(C)cc2c1NCCN1CCOCC1 the activation was inactive: 20.5%.
In the case of CCCSC1=NC2(CCN(C(=O)NC3CCCCC3)CC2)N=C1c1ccc(C)cc1, the activation is reported as inactive: 2.01%.
Cc1ccccc1NC(=O)CSc1nc2c(oc3ccccc32)c(=O)n1Cc1ccco1 was tested, and the activation was inactive: -11.2%.
Cc1ccc(C)c(OCc2nc3ccccc3n2C)c1 was tested, and the activation was inactive: -6.85%.
In the case of CCOc1ccc(-c2cc3c(=O)n(Cc4nc(-c5ccc(OCC)c(OC)c5)oc4C)ccn3n2)cc1Cl, the activation is reported as inactive: -4.14%.
With CCCCn1cc2c(c1-c1ccc(Br)cc1)c(=O)n(C)c(=O)n2C the activation was inactive: -27.2%.
For Cc1ccc2nc(CSc3nnc(NC(=O)C(C)C)s3)cc(=O)n2c1, the activation was inactive: -0.729%.
With Cc1cccc2c(=O)cc(CSc3ccccc3NC(=O)c3cccc(Cl)c3)[nH]c12 the activation was inactive: 7.61%.
For CSc1ccc(C2c3c(-c4ccccc4O)n[nH]c3C(=O)N2Cc2ccncc2)cc1 (configuration not stated), the activation was inactive: -22%.
In the case of COc1ccc(NCc2cc3ccc(OC)cc3n(CC(=O)Nc3ccc(C)c(C)c3)c2=O)cc1, the activation is reported as inactive: -41.6%.
With Cc1cccc(C(=O)NCCc2nc3ccccc3n2CCC(C)C)c1 the activation was inactive: 47.2%.
For Cc1cccc(OCC(=O)Nc2c(C(=O)Nc3ccc(F)cc3)oc3ccccc23)c1, the activation was inactive: -12.4%.
Cc1cccc(N2C(=O)CSC23C(=O)N(C)c2ccccc23)c1 (configuration not stated) was tested, and the activation was inactive: -7.01%.
With COc1cc(NC(=O)NCCc2c(C)nn(C)c2C)cc(OC)c1OC the activation was inactive: -10.8%.
For CCCN1CCN(c2nnc(-n3cccc3C(=O)Nc3ccccc3C(F)(F)F)s2)CC1, the activation was inactive: -18.9%.
With CCc1ccc(-n2nc(C)c3c(C)cc(=O)n(CC(=O)Nc4cc(Cl)ccc4OC)c32)cc1 the activation was inactive: -0.615%.
In the case of CCOc1ccc(OCC)c(NC(=O)c2cnn(-c3ccc(F)cc3)c2-n2cccc2)c1, the activation is reported as inactive: -5.4%.
For O=c1c2sc3ccccc3c2n(Cc2cccc(Cl)c2)c(=O)n1Cc1ccccc1, the activation was inactive: -1.56%.
COc1ccc(S(=O)(=O)Nc2cccc(-c3ccc(N4CCCCCC4)nn3)c2)cc1OC was tested, and the activation was inactive: -4.88%.
For CC(C)(C)OC(=O)N1CCC(c2c(C(=O)N3CCN(c4cccc(Cl)c4)CC3)cnn2-c2cccc(Cl)c2)CC1, the activation was inactive: -20.8%.
CC(=O)Nc1ccc(S(=O)(=O)NCCc2csc3nc(-c4ccc(Cl)cc4)nn23)cc1 was tested, and the activation was inactive: 34.6%.
With CCc1ccc(NC(=O)C2CCCN(S(=O)(=O)c3ccc4[nH]c(=O)ccc4c3)C2)cc1 (configuration not stated) the activation was inactive: -7.45%.

Source: PubChem BioAssay AID1346428 (National Center for Advancing Translational Sciences (NCATS), 2018)
Also: 0% is about no effect.
